The supplement of paper PMC10126150
Sequences with one replicate were seen in a single cluster, so their values are uncertain.

Tested on: ATP
Experiment: switch fluorescence ratio, 500 uM ATP over buffer (Cy3 cluster intensity, sum of 5 cycles each) (fold (ratio)); higher = stronger signal-on switching upon ATP binding; sequences stand for … in TCGTCGGCAGCGTCAGATGTGTATAAGAGACAGTTTTTTTTTTTTTTTTTTTTTTTTT…TC
Conditions: aptamer strand: ATP DNA aptamer (quencher-CACCTGGGGGAGTATTGCGGAGGAAGG + anchor), 100 nM annealed; ATP concentration: 500 uM; one replicate
How it was run: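 For every switch-domain sequence, the fluorescence ratio is the mean of per-cluster values, each being summed target-cycle Cy3 intensity over summed buffer-cycle Cy3 intensity. Clusters outside 100-1000 RFU were excluded. On a modified Illumina MiSeq flow-cell, the Cy3-labelled switching-strand clusters were annealed to 100 nM quencher-labelled ATP aptamer, imaged in selection buffer and then after 15 min with 500 uM ATP at 22 °C. Five such cycles were run, with NaOH stripping and re-annealing between them.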
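Note: ATP exposure 15 min at 22 °C before imaging.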

Row | Sequence | switch fluorescence ratio
1 | CATCAGGTAA | 1.07
2 | CATCATTAGG | 1.05
3 | CATCCAACCC | 1.08
4 | CATCCATCGG | 1.01
5 | CATCCCCCAG | 6.21
6 | CATCCCCGGT | 1.24
7 | CATCCCCTGT | 1.05
8 | CATCCGAAGA | 2.04
9 | CATCCTCCCG | 1.64
10 | CATCCTTGTC | 1.06
11 | CATCGACC | 1.63
12 | CATCGACCTC | 1.03
13 | CATCGACTGA | 1.02
14 | CATCGAGAGC | 0.958
15 | CATCGCGTGC | 1.24
16 | CATCGGAAAG | 1.01
17 | CATCGTAGTG | 0.998
18 | CATCGTGCGC | 1.02
19 | CATCGTTCAA | 1.14
20 | CATCGTTCAT | 0.995
21 | CATCTAAAGC | 1.21
22 | CATCTAAATA | 1.44
23 | CATCTAGGCG | 0.984
24 | CATCTAGGCT | 0.996
25 | CATCTTATTT | 0.969

Row | Sequence | switch fluorescence ratio
26 | CATGAAAAG | 1.01
27 | CATGAACCTC | 1
28 | CATGAGAGTG | 0.954
29 | CATGAGCAA | 2.96
30 | CATGAGTATA | 1.01
31 | CATGAGTGTA | 1.02
32 | CATGATATAA | 0.97
33 | CATGATGGGA | 0.994
34 | CATGATGGGT | 0.955
35 | CATGATTTGT | 1
36 | CATGCAACTT | 1.04
37 | CATGCCCGGG | 1.02
38 | CATGCCGCGT | 1.03
39 | CATGCCGGGG | 1.05
40 | CATGCGAAAA | 1.24
41 | CATGCGAGGT | 1.04
42 | CATGCGGTGG | 0.977
43 | CATGCTGGTC | 1.05
44 | CATGCTTACG | 0.999
45 | CATGCTTTCG | 0.979
46 | CATGGACCAG | 1.03
47 | CATGGAGAAA | 0.981
48 | CATGGAGTTA | 1.04
49 | CATGGCGCTT | 1.02
50 | CATGGTAGCA | 1.02

Row | Sequence | switch fluorescence ratio
51 | CATGTAAAAA | 1.03
52 | CATGTAGGAG | 1.01
53 | CATGTATTCT | 0.984
54 | CATGTCGTTC | 1.02
55 | CATGTCTGGC | 0.954
56 | CATGTGGATA | 0.975
57 | CATGTTATAT | 0.999
58 | CATGTTGCCT | 0.981
59 | CATGTTTACA | 0.976
60 | CATTAAATAT | 0.985
61 | CATTAATAAA | 0.942
62 | CATTACAGC | 1.02
63 | CATTAGAGC | 1.04
64 | CATTAGGAGG | 0.97
65 | CATTAGGCG | 0.993
66 | CATTAGTATT | 1.02
67 | CATTATCCCT | 1.06
68 | CATTATTCGC | 1.01
69 | CATTCGACGG | 0.997
70 | CATTCGGCGT | 1.01
71 | CATTCGTGGA | 1.02
72 | CATTCTATT | 1.01
73 | CATTGACTCA | 1.02
74 | CATTGATTTG | 1.01
75 | CATTGCGACG | 0.962

Row | Sequence | switch fluorescence ratio
76 | CATTGCTAC | 1.89
77 | CATTGGCATT | 1.01
78 | CATTGGCCAA | 0.99
79 | CATTGGCTTT | 1
80 | CATTGGTGTA | 1.01
81 | CATTGTTCAT | 0.995
82 | CATTTACGAC | 1.11
83 | CATTTATGCT | 1.01
84 | CATTTCCGAC | 1.87
85 | CATTTGCCGA | 0.997
86 | CATTTGGAAA | 1
87 | CATTTGGCAG | 0.994
88 | CATTTGGTGC | 1.03
89 | CATTTGGTGG | 1.06
90 | CATTTTCCTG | 1.04
91 | CATTTTTTCC | 0.92
92 | CCAAAAAAGC | 0.963
93 | CCAAACTTAT | 0.939
94 | CCAACCCGAA | 1.71
95 | CCAACCTGC | 1.33
96 | CCAACGCGGA | 3.12
97 | CCAACGTTAC | 1.77
98 | CCAACTAAAG | 1.01
99 | CCAAGAAGCG | 1.06
100 | CCAAGATACC | 2.08
